Laboratory results reported in PubChem BioAssay AID463173 (ICCB-Longwood Screening Facility, Harvard Medical School, 2010).
Hit rate of the full screen: of about 52,000 compounds, about 4,300 (8.3%) were called active. Rule as the data show it: active = survival mostly below about 52% (no sharp cut-off); inactive = mostly above about 56%. Some of the results follow.

What follows are compounds tested on DeltatarO mutant (assay: S. aureus survival, RN4220 and DeltatarO strains – OD600, teichoic acid synthesis inhibitors, primary screen (AID 463173)). Conditions: S. aureus RN4220 wild type/DeltatarO growth, OD600, 18 h, stronger effect = lower value, screened at 18.75 µg/mL (by protocol).

Compound | survival
COc1cccc(C(=O)NCc2cn3ccccc3n2)c1 | inactive: 98%
c1cncc(-c2nc(NCc3ccco3)c3ccccc3n2)c1 | inactive: 88%
COc1ccc(S(=O)(=O)NCC(c2ccc(N(C)C)cc2)N2CCCC2)cc1 (stereo not given) | inactive: 69%
CCOC(=O)C1CCCN(S(=O)(=O)c2cc3c4c(c2)CC(=O)N4CCC3)C1 (stereo not given) | inactive: 93%
O=C(O)C1C2C=CC(C2)C1C(=O)N1CCN(Cc2ccccc2)CC1 (stereo not given) | inactive: 59%
CCC(C)(C)NC(=O)C1CCN(S(=O)(=O)c2c(C)noc2/C=C/c2ccc(C)cc2)CC1 | active: 52%
COc1ccc(NC(=O)C2=CC(c3ccc4c(c3)OCO4)=NS(=O)(=O)N2C)cc1 | inactive: 88%
CCc1ccc(NC(=O)Cn2c(=O)n(CCCCC(=O)NCCc3ccccc3)c(=O)c3ccccc32)cc1 | inactive: 84%
COc1ccc(C)cc1NC(=O)C1COc2ccccc2C1 (stereo not given) | inactive: 83%
Fc1ccc(-n2cc(-c3ccccc3)c3c(NCCc4ccccc4)ncnc32)cc1 | inactive: 77%
O=C(Nc1ccc2c(c1)OCO2)c1cc(-c2ccc(Br)cc2)on1 | inactive: 63%
COC(=O)CN(c1ccc(C)c(C)c1)S(C)(=O)=O | inactive: 68%
CCOC(=O)C1(CC)CC(C)(c2csc(N)n2)OC1=O (stereo not given) | inactive: 93%
Cc1ccccc1C(=O)Nc1nc2nc(-c3ccccc3)cc(=O)n2[nH]1 | inactive: 71%
Clc1cccc(-n2cc(-c3ccccc3)c3c(N4CCCCC4)ncnc32)c1 | inactive: 101%
Cc1cc(C)c(/C=C/c2onc(C)c2S(=O)(=O)N2CCC(C(=O)N(C)Cc3ccccc3)CC2)c(C)c1 | inactive: 89%
Cc1ccc(NC(=O)Nc2nnc(N(C)C3CCCCC3)s2)c(Cl)c1 | inactive: 104%
O=C1CCS(=O)(=O)CC1 | inactive: 81%
Cc1ccc(-n2c(=O)c3c4c(sc3n(Cc3ccccc3C)c2=O)CCC4)cc1C | inactive: 134%
COC(=O)C[n+]1ccc(C)cc1 | inactive: 69%
CCOC(=O)N1CC=C2C(C#N)=C(N)C(C#N)(C#N)C(Cc3ccccc3)C2C1 (stereo not given) | inactive: 77%
Cc1ccc(NC(=O)c2oc3ccc(S(=O)(=O)N4CCCCC4)cc3c2C)cc1Cl | inactive: 71%
CCN(Cc1ccccc1)C(=O)CCc1c(C)nc2c(c(C)nn2-c2ccc(C)c(C)c2)c1C | inactive: 95%

Compound | survival
Cn1c(=O)c2c(-c3ccc(Br)cc3)n(CCc3ccccc3)cc2n(C)c1=O | inactive: 89%
CCc1cccc(C)c1NC(=O)Cn1cc2c(n1)CCCC2 | inactive: 99%
CCN1C(C(=O)c2ccccc2)=C(OC(=O)c2ccc(OC)cc2)c2ccccc2S1(=O)=O | active: 46%
CCOC(=O)c1cnc2c(ccc3ccccc32)c1Nc1cccc(C(F)(F)F)c1 | active: 36%
Cc1ccc(NC(=O)CCCn2c(=O)c3cccn3c3ccccc32)c(C)c1 | inactive: 49%
Cc1ccc(C(=O)NCC(c2ccc3c(c2)OCO3)N2CCN(C)CC2)cc1C (stereo not given) | inactive: 71%
CCc1noc(-c2ccc(NCc3ccccc3)c([N+](=O)[O-])c2)n1 | inactive: 69%
COc1ccccc1N1CCN(C(=O)c2cn(C)c3ccc(S(=O)(=O)N(C)C4CCCCC4)cc3c2=O)CC1 | inactive: 83%
COCCN(Cc1cc2cc3c(cc2nc1Cl)OCO3)C(=O)Nc1ccccc1OC | inactive: 92%
CCOc1ccc(NC(=O)c2cnn(-c3ccc(C)c(C)c3)c2C2CCN(C(=O)OC(C)(C)C)CC2)cc1 | inactive: 75%
CCOc1ccc(Nc2nc3c(S(=O)(=O)c4cccc(Cl)c4)nnn3c3ccsc23)cc1 | inactive: 41%
CC1=C(C(=O)Nc2ccccc2)C(c2ccc(C(=O)O)cc2)n2ncnc2N1 (stereo not given) | inactive: 60%
CCc1ccc(OCC(=O)N(Cc2ccco2)Cc2ccccc2Cl)cc1 | inactive: 84%
COc1ccc2c(c1)c1c(c(=O)n(-c3ccccc3)c(=O)n1CC(=O)NCCC1=CCCCC1)n2C | inactive: 84%
Cn1ncc2c(NCc3ccccc3Cl)nc(NCCO)nc21 | inactive: 67%
O=C(Nc1ccc(-n2nncc2-c2ccccc2)cc1)c1cccc(F)c1 | inactive: 129%
O=C(CN1C(=O)CCn2nc(-c3ccccc3)cc21)NCc1ccc(F)cc1 | inactive: 69%
CCOc1ccc(CNC(=O)C2CCN(S(=O)(=O)c3cn(C)cn3)CC2)cc1 | inactive: 99%
N=c1c(C(=O)NCC2CCCO2)cc2c(=O)n3ccccc3nc2n1CCCO (stereo not given) | inactive: 92%
COc1ccc(Cn2c(C(=O)O)c(CNCCc3ccco3)c3ccc(C)cc32)cc1 | inactive: 85%
COc1ccc(F)cc1S(=O)(=O)NCC(c1ccco1)S(=O)(=O)c1ccc(F)cc1 (stereo not given) | inactive: 63%
CCCn1c(=C(C#N)C#N)s/c(=C2\C=Cc3ccccc3N2CC)c1=O | inactive: 97%
CCOc1cc(C(=O)NCCc2csc3nc(-c4ccccc4F)nn23)cc(OCC)c1OCC | inactive: 80%

Compound | survival
Cc1nn(CCCC(=O)NCCc2ccc(Cl)cc2)c(=O)c2c1sc1ccccc12 | inactive: 72%
Cc1ccccc1OCC(=O)Nc1ccccc1C(=O)OCc1cc(=O)n2ccsc2n1 | inactive: 118%
Cc1cc(C(F)F)n2nc(C(=O)Nc3cccc(Cl)c3C)nc2n1 | inactive: 82%
COc1cccc(Cn2c(CNC(=O)CCc3ccccc3)nc3cccnc32)c1 | inactive: 87%
Cc1c(Cl)cccc1NC(=O)CCS(=O)(=O)c1ccc2c(c1)oc(=O)n2C | inactive: 99%
CC(C)(C)OC(=O)N1CCN(c2ccc(NC(=O)Cn3nnc(-c4ccccc4)n3)cc2)CC1 | inactive: 80%
COc1cccc(CNC(=O)CCn2nc(C)c3c(C)n(-c4ccccc4)nc3c2=O)c1 | inactive: 83%
Cc1cc(C)cc(NC(=O)Cn2c(=O)n(-c3cc(C)cc(C)c3)c(=O)c3oc4ccccc4c32)c1 | inactive: 63%
CCOC(=O)Cn1c(=O)n(C2CCCCC2)c2nc(-c3ccc(CC)cc3)nc(C(N)=O)c21 | inactive: 71%
Cn1nc(C(=O)NCc2cccc(Cl)c2)c2c1-c1ccccc1S(=O)(=O)C2 | inactive: 60%
N#CC1=C(N)N2C(=C(C#N)C13CCCC3)Nc1ccccc12 | inactive: 86%
COCCNc1c(-c2ccccc2)nc2cc(C)ccn12 | inactive: 69%
Cc1ccccc1N(C)S(=O)(=O)c1nnc(NC(=O)c2ccccc2F)s1 | active: 27%
COc1ccc(-n2ccnc2SCC(=O)Nc2nnc(C)s2)cc1 | inactive: 123%
COc1cc(CN2CCc3nc(N4CCN(c5ncccn5)CC4)ncc3C2)cc(OC)c1OC | inactive: 101%
COC(=O)C(C)Sc1nc2c(cnn2-c2ccc(F)cc2)c(=O)[nH]1 (stereo not given) | inactive: 66%
CCOc1cc(C2CC(=O)Nc3cc4c(cc32)OCCO4)ccc1O (stereo not given) | inactive: 92%
CCOc1ccccc1NS(=O)(=O)c1ccc2c(c1)CC(C)N2C(=O)C1CCC1 (stereo not given) | inactive: 71%
N#Cc1c(NC(=O)c2cccnc2)sc2c1CCCC2 | inactive: 90%
COc1cccc(C(=O)N(Cc2cccnc2)c2nc3c(OC)ccc(C)c3s2)c1OC | inactive: 73%
CCOC(=O)c1c(C)c(C(=O)NCc2ccc(OC)cc2)c(C)n1CC | inactive: 102%
COc1ccc(NCc2cc3cc4c(cc3n(CC(=O)Nc3ccc(F)cc3)c2=O)OCCO4)cc1 | inactive: 80%
COc1ccc(C2(C(=O)NC(C)C)CCOCC2)cc1 | inactive: 94%

Compound | survival
O=C(CSc1nc2ccccc2nc1Cc1ccc(Cl)cc1)N1CCCc2ccccc21 | inactive: 78%
CCCC(=O)C1=C(c2ccc(C)c(C)c2)N(C(=O)CCC)n2c(CC)nnc2S1 | inactive: 89%
NC(=O)c1nsc(C(=O)N(CCc2ccccc2)C(C(=O)NC2CCCC2)c2ccco2)c1N (stereo not given) | inactive: 104%
CC1CCN(C(=O)c2cc(-c3cccc(Cl)c3)on2)CC1 | active: -15%
COc1ccc(-c2noc(-c3ccc(NCCc4ccccc4)c([N+](=O)[O-])c3)n2)cc1OC | inactive: 57%
CCOc1ccc(-c2cc(NC(=O)c3ccc(C)cc3)c(C(=O)OC)s2)cc1 | inactive: 70%
Cc1cc(C)cc(-n2c(SCC(=O)NCC3CCCO3)nc3c([nH]c4ccccc43)c2=O)c1 (stereo not given) | inactive: 96%
COc1ccc2c(c1)-c1nc(NC(=O)c3ccc(C)cc3)sc1CC2 | active: 5%
CCCC(=O)Nc1ccccc1NC(=O)CCC | inactive: 74%
CCOc1ccc(NC(=O)Nc2ccc3snnc3c2)cc1 | inactive: 110%
COc1cccc(CNC(=O)Cc2c(C)c3c(cc(C)c4c(C)coc43)oc2=O)c1 | inactive: 84%
Nc1ccccc1OC(=O)C[n+]1ccccc1 | inactive: 70%
COc1ccc(OC)c(CNC(=O)CCCn2nc(C)c3c(C)n(-c4ccc(C)cc4)nc3c2=O)c1 | inactive: 68%
O=C(Cn1ncc2c3ccccc3n(Cc3ccccc3)c2c1=O)Nc1ccccc1C(F)(F)F | inactive: 93%
CC(C)c1ccc(NS(=O)(=O)c2ccc3[nH]cc(C(=O)N4CCCC4)c(=O)c3c2)cc1 | inactive: 76%
CCn1ccc2cc(S(=O)(=O)N3CCCN(C(=O)Nc4cc(Cl)ccc4C)CC3)ccc21 | inactive: 79%
COc1ccc(OC(C)c2nc3ccccc3[nH]2)cc1 (stereo not given) | inactive: 72%
O=C(Nc1ccc2oc(-c3cccnc3)nc2c1)c1ccc(-c2ccccc2)o1 | active: 45%
CCc1ccc(NC(=O)C(=O)NCC(c2cccnc2)N2CCN(C)CC2)cc1 (stereo not given) | inactive: 109%
Cn1ccc2c(OCC(=O)NCc3ccccc3Cl)cccc2c1=O | inactive: 89%
CC(=O)N1CCC2(CC1)OC(=O)C(C)=C2C(=O)NCc1ccc(Cl)cc1 | inactive: 58%
